This passage reports binding results from publication PMC7442787.

The chains behind the UniProt entries cited, without tags or fusion partners.
UniProt Q61602: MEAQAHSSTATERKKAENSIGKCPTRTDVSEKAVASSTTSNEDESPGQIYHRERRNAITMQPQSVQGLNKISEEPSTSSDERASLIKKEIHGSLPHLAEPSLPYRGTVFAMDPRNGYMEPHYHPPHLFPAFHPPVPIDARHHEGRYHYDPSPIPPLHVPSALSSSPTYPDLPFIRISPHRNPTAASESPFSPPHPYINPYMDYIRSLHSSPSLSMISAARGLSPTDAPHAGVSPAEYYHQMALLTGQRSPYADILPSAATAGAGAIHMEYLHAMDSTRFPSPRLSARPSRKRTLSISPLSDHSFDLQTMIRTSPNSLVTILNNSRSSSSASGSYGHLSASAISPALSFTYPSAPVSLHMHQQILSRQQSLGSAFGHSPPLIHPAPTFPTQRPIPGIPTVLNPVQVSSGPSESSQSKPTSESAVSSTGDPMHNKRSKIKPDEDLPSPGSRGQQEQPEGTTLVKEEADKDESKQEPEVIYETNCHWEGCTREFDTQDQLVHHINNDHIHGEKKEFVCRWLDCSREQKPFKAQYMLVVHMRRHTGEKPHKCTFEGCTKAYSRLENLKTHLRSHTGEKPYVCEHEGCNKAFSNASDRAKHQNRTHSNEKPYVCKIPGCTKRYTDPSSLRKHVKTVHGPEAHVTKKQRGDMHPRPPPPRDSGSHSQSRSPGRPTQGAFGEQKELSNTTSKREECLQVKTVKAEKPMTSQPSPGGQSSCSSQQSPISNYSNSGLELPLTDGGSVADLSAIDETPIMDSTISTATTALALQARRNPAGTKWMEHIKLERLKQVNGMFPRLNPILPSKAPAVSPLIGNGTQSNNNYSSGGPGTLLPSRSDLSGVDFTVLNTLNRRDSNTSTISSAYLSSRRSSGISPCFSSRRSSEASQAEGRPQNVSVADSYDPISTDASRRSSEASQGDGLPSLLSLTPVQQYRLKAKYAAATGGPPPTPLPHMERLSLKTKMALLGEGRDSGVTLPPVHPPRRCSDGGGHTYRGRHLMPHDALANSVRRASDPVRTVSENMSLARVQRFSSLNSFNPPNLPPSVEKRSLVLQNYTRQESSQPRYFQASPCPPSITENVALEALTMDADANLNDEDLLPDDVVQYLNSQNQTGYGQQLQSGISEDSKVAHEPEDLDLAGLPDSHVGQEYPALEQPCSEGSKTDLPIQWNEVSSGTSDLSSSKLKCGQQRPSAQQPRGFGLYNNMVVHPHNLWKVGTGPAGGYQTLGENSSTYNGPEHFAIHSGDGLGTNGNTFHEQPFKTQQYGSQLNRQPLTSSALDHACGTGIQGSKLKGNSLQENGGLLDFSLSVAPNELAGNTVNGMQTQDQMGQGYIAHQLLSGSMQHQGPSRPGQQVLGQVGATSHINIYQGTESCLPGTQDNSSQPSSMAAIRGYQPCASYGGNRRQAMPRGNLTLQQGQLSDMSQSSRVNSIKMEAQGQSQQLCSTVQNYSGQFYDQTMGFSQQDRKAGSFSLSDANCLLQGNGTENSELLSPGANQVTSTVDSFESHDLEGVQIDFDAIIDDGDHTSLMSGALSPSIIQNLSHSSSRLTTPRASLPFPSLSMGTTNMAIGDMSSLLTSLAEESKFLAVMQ

Assay [1] has as its target T1, Suppressor of fused (Sufu), endogenous (mouse (endogenous in NIH3T3 and MEFs)) (UniProt Q9Z0P7).
T1 sequence: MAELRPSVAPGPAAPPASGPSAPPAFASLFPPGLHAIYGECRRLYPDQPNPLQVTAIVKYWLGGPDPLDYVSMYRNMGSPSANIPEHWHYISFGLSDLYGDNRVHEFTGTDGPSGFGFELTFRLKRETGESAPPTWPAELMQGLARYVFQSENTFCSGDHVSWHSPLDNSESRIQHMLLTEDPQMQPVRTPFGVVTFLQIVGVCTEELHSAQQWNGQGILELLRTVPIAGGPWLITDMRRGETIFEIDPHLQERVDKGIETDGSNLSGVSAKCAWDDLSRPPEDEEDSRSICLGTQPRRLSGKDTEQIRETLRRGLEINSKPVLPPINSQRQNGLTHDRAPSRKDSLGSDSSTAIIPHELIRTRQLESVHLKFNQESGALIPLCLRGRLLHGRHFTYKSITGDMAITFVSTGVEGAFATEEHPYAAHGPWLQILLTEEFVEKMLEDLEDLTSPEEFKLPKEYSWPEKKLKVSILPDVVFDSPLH
Put plainly: co-IP; endogenous Sufu immunoprecipitated with anti-Sufu from NIH3T3 cells treated with Shh-CM; Western blot with anti-Gli3 and anti-Sufu.

The target in assay [2] is T2, Flag-Ppp4r2 (UniProt Q0VGB7).
T2 sequence: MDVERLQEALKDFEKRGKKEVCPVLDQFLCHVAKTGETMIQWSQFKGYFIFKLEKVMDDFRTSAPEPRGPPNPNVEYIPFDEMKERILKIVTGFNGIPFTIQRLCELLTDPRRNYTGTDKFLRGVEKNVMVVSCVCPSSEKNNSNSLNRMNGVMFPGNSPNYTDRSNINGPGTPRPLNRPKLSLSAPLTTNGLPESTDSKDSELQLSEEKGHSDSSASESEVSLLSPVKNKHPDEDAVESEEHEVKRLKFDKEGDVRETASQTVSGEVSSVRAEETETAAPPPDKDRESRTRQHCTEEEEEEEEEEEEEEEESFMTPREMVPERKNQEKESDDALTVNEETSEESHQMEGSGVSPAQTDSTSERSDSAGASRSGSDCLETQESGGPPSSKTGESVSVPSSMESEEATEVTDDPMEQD
Put plainly: co-IP; Sufu deletion fragments co-expressed with Ppp4r2 (Supplementary Fig. S1B, S1C); the text does not name the method, cells or which partner was precipitated.

Assay [3] concerns the target T2, Flag-Ppp4r2. Put plainly: co-IP; lysates of HEK293 cells expressing Flag-Ppp4r2 and Sufu-Myc; Flag-Ppp4r2 immunoprecipitated, Sufu-Myc detected by Western blot; RIPA buffer, 4 °C overnight, magnetic beads. A general note: Immunoblotting shows a protein as a band on a membrane.
Another assay concerns the target T3, Flag-Sufu (UniProt Q9Z0P7).
T3 sequence: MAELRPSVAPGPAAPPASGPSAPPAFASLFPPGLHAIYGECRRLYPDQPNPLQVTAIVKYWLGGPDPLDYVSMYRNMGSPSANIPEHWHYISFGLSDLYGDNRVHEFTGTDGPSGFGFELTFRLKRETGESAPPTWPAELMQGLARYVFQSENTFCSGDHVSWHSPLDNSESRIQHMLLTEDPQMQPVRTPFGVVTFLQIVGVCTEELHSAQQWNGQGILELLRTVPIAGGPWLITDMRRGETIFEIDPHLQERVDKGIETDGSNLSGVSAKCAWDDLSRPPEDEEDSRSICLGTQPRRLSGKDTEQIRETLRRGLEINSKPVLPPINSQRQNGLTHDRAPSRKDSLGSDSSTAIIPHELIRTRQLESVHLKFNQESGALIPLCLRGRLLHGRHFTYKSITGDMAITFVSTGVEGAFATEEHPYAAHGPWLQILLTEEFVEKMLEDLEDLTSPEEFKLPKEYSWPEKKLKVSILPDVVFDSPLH
Kind of assay: proximity ligation; MEFs transfected with Flag-Sufu, with or without ShhN-CM for 24 h; fixed, mouse anti-Flag and rabbit anti-Ppp4r2, Duolink in situ detection.

Assay [4] deals with T1, Suppressor of fused (Sufu), endogenous (mouse (endogenous in NIH3T3 and MEFs)). Kind of assay: co-IP; endogenous Sufu immunoprecipitated from WT-MEF lysates; endogenous Ppp4r2 detected by Western blot; RIPA buffer, 4 °C overnight, magnetic beads.

Results are given in words; binding and its absence hold for the method and conditions named. Binding seen in cells or lysates may run through a third protein. Some results given as binding are weak or reduced against the parent protein; the word gives no strength. Tags and fused reporters may be left off the sequences shown.

As to “Gli3, endogenous (from UniProt Q61602 1-1583)”, the binding entry in assay [1] was “binds”.

B1: Sufu C-terminal deletion fragment (331–483 a.a.) (domain or fragment, UniProt Q9Z0P7 331-483)
chain: RQNGLTHDRAPSRKDSLGSDSSTAIIPHELIRTRQLESVHLKFNQESGALIPLCLRGRLLHGRHFTYKSITGDMAITFVSTGVEGAFATEEHPYAAHGPWLQILLTEEFVEKMLEDLEDLTSPEEFKLPKEYSWPEKKLKVSILPDVVFDSPL
On to B1, for which, in the assay with Flag-Ppp4r2 [2], the binding entry was “binds”.

B2: Sufu-Myc (protein, UniProt Q9Z0P7 1-484)
chain: MAELRPSVAPGPAAPPASGPSAPPAFASLFPPGLHAIYGECRRLYPDQPNPLQVTAIVKYWLGGPDPLDYVSMYRNMGSPSANIPEHWHYISFGLSDLYGDNRVHEFTGTDGPSGFGFELTFRLKRETGESAPPTWPAELMQGLARYVFQSENTFCSGDHVSWHSPLDNSESRIQHMLLTEDPQMQPVRTPFGVVTFLQIVGVCTEELHSAQQWNGQGILELLRTVPIAGGPWLITDMRRGETIFEIDPHLQERVDKGIETDGSNLSGVSAKCAWDDLSRPPEDEEDSRSICLGTQPRRLSGKDTEQIRETLRRGLEINSKPVLPPINSQRQNGLTHDRAPSRKDSLGSDSSTAIIPHELIRTRQLESVHLKFNQESGALIPLCLRGRLLHGRHFTYKSITGDMAITFVSTGVEGAFATEEHPYAAHGPWLQILLTEEFVEKMLEDLEDLTSPEEFKLPKEYSWPEKKLKVSILPDVVFDSPLH
Consider B2, for which the binding entry with Flag-Ppp4r2 [3] is “binds”.

B3: Sufu middle region deletion fragment (250–350 a.a.) (domain or fragment, UniProt Q9Z0P7 250-350)
chain: HLQERVDKGIETDGSNLSGVSAKCAWDDLSRPPEDEEDSRSICLGTQPRRLSGKDTEQIRETLRRGLEINSKPVLPPINSQRQNGLTHDRAPSRKDSLGSD
Regarding B3, in the assay with Flag-Ppp4r2 [2], the binding entry was “no binding”.

B4: Protein phosphatase 4 regulatory subunit 2 (Ppp4r2), endogenous (protein, UniProt Q0VGB7 1-417)
chain: MDVERLQEALKDFEKRGKKEVCPVLDQFLCHVAKTGETMIQWSQFKGYFIFKLEKVMDDFRTSAPEPRGPPNPNVEYIPFDEMKERILKIVTGFNGIPFTIQRLCELLTDPRRNYTGTDKFLRGVEKNVMVVSCVCPSSEKNNSNSLNRMNGVMFPGNSPNYTDRSNINGPGTPRPLNRPKLSLSAPLTTNGLPESTDSKDSELQLSEEKGHSDSSASESEVSLLSPVKNKHPDEDAVESEEHEVKRLKFDKEGDVRETASQTVSGEVSSVRAEETETAAPPPDKDRESRTRQHCTEEEEEEEEEEEEEEEESFMTPREMVPERKNQEKESDDALTVNEETSEESHQMEGSGVSPAQTDSTSERSDSAGASRSGSDCLETQESGGPPSSKTGESVSVPSSMESEEATEVTDDPMEQD
In the case of B4, the binding result (with Flag-Sufu; in assay [4]) was “binds” each time.

B5: Sufu N-terminal deletion fragment (1–267 a.a.) (domain or fragment, UniProt Q9Z0P7 1-267)
chain: MAELRPSVAPGPAAPPASGPSAPPAFASLFPPGLHAIYGECRRLYPDQPNPLQVTAIVKYWLGGPDPLDYVSMYRNMGSPSANIPEHWHYISFGLSDLYGDNRVHEFTGTDGPSGFGFELTFRLKRETGESAPPTWPAELMQGLARYVFQSENTFCSGDHVSWHSPLDNSESRIQHMLLTEDPQMQPVRTPFGVVTFLQIVGVCTEELHSAQQWNGQGILELLRTVPIAGGPWLITDMRRGETIFEIDPHLQERVDKGIETDGSNLS
B5: the binding entry with Flag-Ppp4r2 [2] is given as “binds”.
